Source: publication PMC4336329 (PLoS ONE, 2015)
About 2,200 (0.71%) of roughly 310,000 compounds showed an effect of 50% or more. The effect is printed as a negative number. The list shows a part of the results.

target: human ether-à-go-go-related gene (hERG) potassium channel (human, UniProt Q12809); assay: primary screen, population patch clamp on CHO cells stably expressing hERG
Sequence (Q12809 whole entry, looked up): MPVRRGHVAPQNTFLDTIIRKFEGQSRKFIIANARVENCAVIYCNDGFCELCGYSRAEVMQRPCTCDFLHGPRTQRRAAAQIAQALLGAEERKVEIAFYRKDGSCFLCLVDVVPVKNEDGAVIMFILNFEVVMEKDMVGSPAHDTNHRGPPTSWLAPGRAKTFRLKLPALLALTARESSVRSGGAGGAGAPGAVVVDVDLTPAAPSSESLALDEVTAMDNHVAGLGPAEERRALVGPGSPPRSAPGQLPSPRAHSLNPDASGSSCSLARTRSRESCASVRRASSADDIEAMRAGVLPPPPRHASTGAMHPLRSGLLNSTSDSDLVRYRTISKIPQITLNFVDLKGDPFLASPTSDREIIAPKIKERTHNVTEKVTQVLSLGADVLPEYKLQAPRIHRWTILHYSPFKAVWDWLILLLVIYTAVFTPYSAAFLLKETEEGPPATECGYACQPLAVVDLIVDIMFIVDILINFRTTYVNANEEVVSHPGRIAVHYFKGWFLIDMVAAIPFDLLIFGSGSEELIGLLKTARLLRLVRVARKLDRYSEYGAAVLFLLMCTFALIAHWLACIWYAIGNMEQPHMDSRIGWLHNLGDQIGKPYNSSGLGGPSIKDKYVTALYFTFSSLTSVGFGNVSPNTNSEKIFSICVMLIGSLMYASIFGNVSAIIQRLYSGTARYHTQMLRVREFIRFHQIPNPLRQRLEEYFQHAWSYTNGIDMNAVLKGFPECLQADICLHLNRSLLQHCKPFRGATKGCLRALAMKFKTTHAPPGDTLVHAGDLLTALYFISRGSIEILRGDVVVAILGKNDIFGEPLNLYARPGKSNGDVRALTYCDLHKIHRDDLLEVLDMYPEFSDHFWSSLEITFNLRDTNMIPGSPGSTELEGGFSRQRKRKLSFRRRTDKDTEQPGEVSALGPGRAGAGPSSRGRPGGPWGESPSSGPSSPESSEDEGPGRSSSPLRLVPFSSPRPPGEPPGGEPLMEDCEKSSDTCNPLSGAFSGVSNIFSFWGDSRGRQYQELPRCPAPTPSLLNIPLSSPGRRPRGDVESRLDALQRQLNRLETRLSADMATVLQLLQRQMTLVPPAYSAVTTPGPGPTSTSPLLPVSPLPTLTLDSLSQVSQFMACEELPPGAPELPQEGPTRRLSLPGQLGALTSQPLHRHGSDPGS

SMILES	hERG current change (%, negative = inhibition) at 1uM
CC(C)n1cc(C(=O)N2CCCC(N3CCN(c4cccc(Cl)c4)CC3)C2)cn1 (centres unmarked)	-13.2%
COc1ccc(CCN(C)C(=S)Nc2cccc(C)c2)cc1OC	19.2%
Cc1cc(C)n2nc(SCC(=O)c3cc(C)n(CC4CCCO4)c3C)nc2n1 (centres unmarked)	0.0539%
Cc1cccc(C)c1NC(=O)CN(C)C(=O)C1CC(=O)N(c2cccc3ccccc23)C1 (centres unmarked)	8.8%
Cc1cc(=O)n2nc(N3CCC(C(=O)NCc4ccccc4)CC3)sc2n1	14.7%
O=C(c1ccc(C(=O)N2CCCc3ccccc32)s1)N1CCCc2ccccc21	5.87%
COc1ccc(-c2c3c(cc(C)[n+]2[O-])oc2ccc(OC)cc23)cc1	10.3%
COc1cc(/C=C/C(=O)OCC(=O)Nc2ccc3c(c2)OCCO3)ccc1OCC#N	8.93%
NC(=O)C1=C[C@H](C2CCCCC2)C[C@H](OCc2ccc(CO)cc2)O1	11.9%
CCN(CC)CCN(Cc1cc2cc(C)c(C)cc2[nH]c1=O)C(=S)NCc1ccco1	-0.139%
Clc1cccc(-c2nnc(SCc3nc4ccccc4[nH]3)n2Cc2ccco2)c1	-0.558%
COc1ccc(/C=N/Nc2nc(NCc3ccco3)nc(Nc3ccc(OC)cc3)n2)cc1	2.98%
CCN(CC)c1ccc(S(=O)(=O)N2CCOCC2)cc1NC(=O)CSc1nnc(N)s1	1.84%
Cc1cccnc1NC(=O)CCc1nnc2ccc(NCc3ccco3)nn12	14.6%
Cc1ccc(N(C(=O)c2ccc(S(=O)(=O)N3CCOCC3)cc2)C2C=CS(=O)(=O)C2)cc1C (centres unmarked)	13.8%
COc1cc(/C=N/NC(=O)c2ccc(C)nc2)cc([N+](=O)[O-])c1O	5.44%
COC(=O)Cn1cnc2c(cnn2-c2ccc(C)cc2)c1=O	12.3%
CCOc1ccc(C2/C(=C(/O)c3ccc(F)cc3)C(=O)C(=O)N2CCCN(C)C)cc1 (centres unmarked)	15.6%
CC12CCC(C(=O)N3CCCc4ccccc43)(CC1=O)C2(C)C (centres unmarked)	13.3%
CCOc1ccccc1-n1nnnc1SCC(=O)O	-1.44%
O=C(CCC1CCCC1)Nc1nnc(-c2ccc3c(c2)OCO3)s1	9.9%
Cc1ccc2nc(NC(=O)c3ccc4c(c3)OCO4)sc2c1	8.82%
NS(=O)(=O)c1ccc(CCNC(=O)C2COc3ccccc3O2)cc1 (centres unmarked)	7.48%
CCN1C(=O)[C@@H]2[C@@H](c3ccc(SC4CCCCC4)cc3)N3CCC[C@@]3(C(=O)OC)[C@@H]2C1=O.O=C(O)C(F)(F)F	17.8%
Cc1cc2[nH]c(=O)c(=O)[nH]c2cc1S(=O)(=O)Nc1cccc(C)c1C	15.2%
COc1ccc(C(C(=O)NC2CCCCC2)N(C(=O)Cc2c[nH]c3ccccc23)c2ccccc2C)cc1OC (centres unmarked)	9.07%
Cc1ccc2cc3cc(C(=O)N(CC(=O)NC4CCCC4)c4cccc(C)c4C)sc3nc2c1	3.16%

SMILES	hERG current change (%, negative = inhibition) at 1uM
O=c1[nH]nc(-c2ccc(NCCCO)c([N+](=O)[O-])c2)c2ccccc12	7.15%
Cc1ccccc1CNC(=O)/C=C\C(=O)O	1.78%
Cc1cc(Nc2ccc(C)c(C)c2)n2nc(C)nc2n1	-9.51%
COc1ccccc1CN1CC(C(=O)NCc2c(F)ccc(C)c2F)CCC1=O (centres unmarked)	7.48%
Cn1c(SCC(=O)N2CCOCC2)nc2c(c1=O)SCC2	14.4%
Cc1ccc2nc(N/N=C/c3ccccc3F)nc(-c3ccccc3)c2c1	7.9%
O=C(Oc1c(CN2CCOCC2)cc(Cl)c2cccnc12)c1cccs1	9.85%
Cn1c2ccccc2c2nnc(NN)nc21	15.6%
Cc1ccc(OCC(=O)Nc2ccc(S(=O)(=O)N(C)C3CCN(C)CC3)cc2)c(C)c1	8.9%
COc1ccccc1N1CCN(C(=O)CCCCCn2c(=O)[nH]c3ccsc3c2=O)CC1	1.14%
CCOc1ccc(NC(=O)CN(C)C(=O)c2ccccc2OCc2cccc(C)c2)cc1OCC	12%
CCC(=O)Nc1cccc(NC(=O)CSc2nc3c(c(=O)n(C)c(=O)n3C)n2C)c1	17.4%
O=P(NS(=O)(=O)c1ccc(Br)cc1)(Oc1ccccc1)Oc1ccccc1	16.2%
COc1ccc(CCNC(=O)c2cc3sccc3n2C)cc1OC	10.5%
O=C(CSc1n[nH]c(-c2cccnc2)n1)Nc1ccccc1[N+](=O)[O-]	11.9%
CC(C)(C)NC(=O)NC(=O)CN1CCN(c2ccccc2)CC1	-3.2%
CCCC(=O)Nc1ccc(NC(=O)c2ccccc2OC)cn1	3.81%
Cc1cc([N+](=O)[O-])ccc1NC(=O)Nc1ccccc1F	13%
Cc1ccccc1N1OC2C(=O)N(c3ccc(F)cc3)C(=O)C2C1c1ccccn1 (centres unmarked)	4.69%
Cc1nc2c3ccccc3nc(NNC(=O)CCC(=O)NCCN3CCN(c4ccccc4F)CC3)n2n1	6.6%
CCN(CC(O)Cn1c2ccccc2c2ccccc21)S(=O)(=O)c1ccc(F)cc1 (centres unmarked)	13.3%
CC(=O)Nc1ccc(S(=O)(=O)NCc2cccnc2)cc1	15%
NC1=NN(c2cccc(C(=O)O)c2)C(=O)C1	13.1%
CC(C)(C)OC(=O)N/N=C/c1cn(-c2ccccc2)nc1-c1cccnc1	6.15%
COc1ccc(Cl)cc1NC(=O)CSc1nnc(Cc2ccc(C)cc2)c(=O)[nH]1	3.44%
Cc1ccc(Nc2nc(N)nc(CN3CCN(Cc4ccc5c(c4)OCO5)CC3)n2)cc1	-53.4%
